Reference: PubChem BioAssay AID624202 (National Center for Advancing Translational Sciences (NCATS), 2012)
In all, about 380,000 compounds went through this assay and about 4,000 (1.1%) were called active. Inconclusive results, whose numbers are uncertain, are shown with a selection of clear calls. The call rests on the fitted dose curve; in most records, active means well fitted activation curve with a large enough effect; inconclusive means small, poorly fitted or top-dose-only effect; inactive means no such curve, though single readings can be large or run the other way. Potencies of inconclusive entries are doubtful fits and often do not repeat.
Potency means the concentration at half of the fitted maximal effect; tags describe the fitted curve by direction and shape.

Experiment: qHTS Assay to Identify Small Molecule Activators of BRCA1 Expression; further: nearly all actives have a fitted effect of over 80% in size
Settings: MCF7-BRCA1-FFLuc reporter, luminescence, 48 h; activation: at 46.1 µM (top of the series), scaled: vehicle 0%, 10 µM genistein 100% unless noted
Outline: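 Quantitative HTS in MCF7 cells stably reporting BRCA1 expression via firefly luciferase. Compound treatment lasts 48 h at 37 °C in phenol-red free MEM. Activation is expressed relative to genistein at 10 microM and DMSO.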
In the case of `Cc1cc2nc(N3CCN(C(=O)c4cccs4)CC3)sc2cc1C`, the Potency is reported as inconclusive: 2 µM [activator, partial curve, poor fit].
In the case of `CN(C)c1ccc(C=Cc2cnccn2)cc1`, the activation is reported as inconclusive: 25.9% [activator].
In the case of `COc1ccc(N(CC(=O)Nc2ccc3c(c2)OCO3)S(=O)(=O)c2ccccc2)cc1OC`, the “activation” value is reported as inactive: 0.302%.
With `Cc1ccc(NC(=O)CCOc2ccccc2)cc1` the Potency was active: 7.08 µM.
With `O=C(Nc1ccc2ccccc2c1)c1ccccc1[N+](=O)[O-]` the Potency was inconclusive: 12.6 µM [activator, single point].
With `C/C(=N\NC(=O)c1cc2c(s1)CCC(C)C2)c1ccc[nH]1` (centres undefined) the Potency was active: 5.01 µM.
In the case of `COc1ccc(NC(=O)c2cc(OC)c(OC)cc2OC)c(S(=O)(=O)N2CCOCC2)c1`, the “activation” value is reported as inactive: 4.95%.
In the case of `O=C(Nc1ccc2c(c1)OCO2)c1ccc(Br)o1`, the Potency is reported as inconclusive: 11.2 µM [activator, partial curve, poor fit].
For `Cc1nc(-c2nc(-c3c(C(=O)NN)noc3C)cs2)cs1`, the Potency was inconclusive: 12.6 µM [activator, single point].
In the case of `C/C(=N\Nc1ccc([N+](=O)[O-])cc1)c1ccco1`, the Potency is reported as inconclusive: 6.31 µM [activator, partial curve, poor fit].
In the case of `Cc1ccccc1NC(=O)N1C2CCCC1CC(NC(=O)C(C)(C)C)C2` (centres undefined), the “activation” value is reported as inactive: 3.68%.
In the case of `Cc1nc2cc(NC(=O)Nc3cccc4ccccc34)ccc2n1C`, the Potency is reported as inconclusive: 1.12 µM [activator, full curve, poor fit].
In the case of `CCOc1cccc(-c2c(C(=O)N/N=C/c3ccsc3)nnn2-c2nonc2N)c1`, the “activation” value is reported as inactive: 9.81%.
With `Cc1cc(/C=C(\C#N)C(=O)Nc2ccccc2)c(C)n1-c1cccnc1` the Potency was active: 5.62 µM.
For `Brc1ccc(Cn2c(-c3cncs3)nc3ccccc32)cc1`, the Potency was inconclusive: 22.4 µM [activator, single point].
With `O=C(Nc1ccc(CSc2ccccc2)cc1)c1ccco1` the Potency was inconclusive: 1.58 µM [activator, partial curve, poor fit].
With `O=C(c1ccc(F)cc1)c1cc2ccccc2o1` the Potency was active: 11.2 µM.
With `CC1CC1C(=O)OCC(=O)Nc1ccc(N=Nc2ccccc2)cc1` (centres undefined) the Potency was inconclusive: 2 µM [activator, partial curve, poor fit].
With `CCCS(=O)(=O)N1CCC(C(=O)NC2CCC(C)CC2)CC1` (centres undefined) the Potency was inconclusive: 10 µM [activator, partial curve, poor fit].
With `CC(=O)c1cccc(OCC(O)CNCCc2ccc(Cl)cc2)c1` (centres undefined) the “activation” value was inactive: -5.15%.
With `Cc1ccc(/C=C/C(=O)Nc2ccccc2C(N)=O)cc1` the Potency was inconclusive: 0.794 µM [activator, full curve, poor fit].
With `O=C(/C=C/c1ccc(Cl)cc1Cl)NCc1ccco1` the Potency was active: 11.2 µM.
With `Cc1ccc(-n2ncc3c(NCc4ccco4)ncnc32)cc1C` the Potency was inconclusive: 22.4 µM [activator, single point].
In the case of `O=C(c1cc(Cl)cc(Cl)c1)N1CCN(c2cc(C(F)(F)F)nc3ccccc23)CC1`, the “activation” value is reported as inactive: -49.2%.
In the case of `CCCOc1ccc2c(C)c(CC(=O)OC)c(=O)oc2c1`, the Potency is reported as inconclusive: 20 µM [activator, partial curve, poor fit].
With `C=CCn1c(SCC(=O)O)nnc1-c1ccc(C(C)(C)C)cc1` the “activation” value was inactive: -0.261%.
In the case of `CCc1nnc(NC(=O)/C=C/c2cccs2)s1`, the Potency is reported as inconclusive: 15.8 µM [activator, single point].
In the case of `Oc1ccc(F)c2cccnc12`, the “activation” value is reported as inactive: -52.6%.
With `O=C(c1cc(-c2ccco2)on1)N1CCOCC1` the Potency was inconclusive: 17.8 µM [activator, single point].
In the case of `Cc1cccc(NC(=O)Nc2ccc(F)cc2)n1`, the Potency is reported as inconclusive: 11.2 µM [activator, partial curve, poor fit].
For `Cc1nc2cc(C(=O)O)ccc2s1`, the Potency was inconclusive: 6.31 µM [activator, partial curve, poor fit].
In the case of `CC(=O)c1c(C)[nH]c(C(=O)OCCOc2ccccc2)c1C`, the activation is reported as inconclusive: -70.1% [activator].
With `CCc1ccc(CNc2ccc3c(c2)ncn3CC)cc1` the Potency was active: 6.31 µM.
In the case of `CCOC(=O)c1ccc(NC(=O)C2CC(=O)NC(=Nc3ccc(C)c(C)c3)S2)cc1` (centres undefined), the “activation” value is reported as inactive: 2.36%.
With `CC(=O)Nc1ccc(NC(=O)Nc2ccccc2)cc1` the Potency was inconclusive: 12.6 µM [activator, partial curve, poor fit].
For `O=C(NCc1ccc(F)cc1)Nc1cccc(Cl)c1`, the Potency was inconclusive: 2.82 µM [activator, partial curve, poor fit].
In the case of `COc1ccc(-c2ncc3ccccn23)cc1`, the Potency is reported as inconclusive: 31.6 µM [activator, single point].
For `Cc1ccc2nc(SC(C)C(=O)N3CCOCC3)[nH]c2c1` (centres undefined), the Potency was inconclusive: 2 µM [activator, full curve, poor fit].
With `COc1ccc(NC(=O)c2ccc3ccccc3c2)cc1` the Potency was inconclusive: 22.4 µM [activator, single point].
